# Results published in publication PMC12136788.
# The list shows a part of the results.
# B1: 109382605_109382725_5796_CDS_ENSG00000153201_ENST00000283195|human|control|control (ssRNA)
# RNA: GGGAGUUCUACAGUCCGACGAUCCUUUUCUUGAUUUCCUGGUUCCGAAAUGCCAAAUUUAAAUCCAUCAGCAGACACAGGGAUGGAAAAUCCUUCUUUGGUUGACUUAAAUUCUGUAUUAGAAGAACCCUGAAACAUAAAUGACAACAGAGGAUUGAGCAUCA
# B2: chr1:39494564:39494565:+_ENSG00000168653_ENST00000372967|hu_hu|hu_hu_hu_mus_True|38_38 (ssRNA)
# RNA: GGGAGUUCUACAGUCCGACGAUCAUGCAUUCGCCUCAUCGUUUUGUACCGAAGCAAGCACUCUUCGAAGUCAUCGAACUCUAUCUUGCACUCCUUUUCUGCCCGAGUCCCACCGAUCCCGUGUGCACACUCUAUCCACUCUUUCAACAGAGGAUUGAGCAUCA
# B3: 122463516_122464057_2619_3pUTR_ENSMUSG00000034602_ENSMUST00000073792|mouse|control|control (ssRNA)
# RNA: GGGAGUUCUACAGUCCGACGAUCCUUUAGUCCCAGAAUCCACACAAGAUGCUGAAGAGUUGCCAGAACAAGUUGCCAUGAUGUUCCAAGAACAGCGCCGUGACAGUGGGCCAAGUUCAGCAGAGUCCUCAUGCACUGAAUAUUCAACAGAGGAUUGAGCAUCA
# B4: chr14:78183846:78183847:+_ENSG00000119705_ENST00000557342|hu_hu|hu_hu_hu_mus_False|1_28 (ssRNA)
# RNA: GGGAGUUCUACAGUCCGACGAUCUCUCAGAAAUCUUUCUUCAUCAGAUGUUUGAGCUCCGUGCAAAGCCUUUGCUCUUUGAGCUUGAACGUGGAUCUAUGGGAGGGCUAUAAUAUGCAGAAAAGGUAAUUUUUUUUUCCGAAGCAACAGAGGAUUGAGCAUCA
# B5: chr2:173429262:173429263:+_ENSG00000152256_ENST00000410055|hu_mus|FALSE|FALSE (ssRNA)
# RNA: GGGAGUUCUACAGUCCGACGAUCGCUCUCCUUGUAUUCAGUCACACCCUGGGCCAUGGUGGGAAUGACAUCAUUGUGCCGGUUUCUGAUCCUUAUCACUGUGUCUGUGAAUUCAUAAAUAGUUUUAGCAUCUUCAGCACUUUUCAACAGAGGAUUGAGCAUCA
# B6: chr4:140556289:140556290:+_ENSMUSG00000036622_ENSMUST00000037055|mus_mus|mus_mus_mus_hu_False|38_88 (ssRNA)
# RNA: GGGAGUUCUACAGUCCGACGAUCGAUGGAGCUCACCAGGCCCCCUUUGGCUGUGCAGAACCCUGUGCGGGUCACCACUGCCAGGACGUGCGGUCCCACGUAGGCUCGGGCCUGCAAGAUGAGGGUCCCGCAGAAGAGUGUGUGCAACAGAGGAUUGAGCAUCA
# B7: chr12:72996793:72996794:+_ENSMUSG00000034574_ENSMUST00000085299|mus_hu|FALSE|FALSE (ssRNA)
# RNA: GGGAGUUCUACAGUCCGACGAUCAGGGGGCAUGGGCAAUGCUGGUUCCAUGGUCUGAAGCGCAAAGUUGCUAUCAUUUCGCAGCCGAUACGUGAUUUCUGGGUGAUCAUUAUUUCGGAAACAGCAAAAGAUGAAUGAAAUACCCAACAGAGGAUUGAGCAUCA
# B8: chr10:21962475:21962476:+_ENSG00000078403_ENST00000307729|hu_hu|FALSE|FALSE (ssRNA)
# RNA: GGGAGUUCUACAGUCCGACGAUCUUCAAAGCUUUUAGGCUGUGAAGUAACAGCUGAGGUUGAAGGGAGGCCAAUUAAGGUACUAAAACUAUUUACCCCCCCUUCCUGGCUUCCAGACUCUCCUUUAUGUACAUCUUUGGUUGCCAACAGAGGAUUGAGCAUCA
# B9: chr17:15081082:15081083:+_ENSMUSG00000050088_ENSMUST00000052691|mus_hu|motif|central (ssRNA)
# RNA: GGGAGUUCUACAGUCCGACGAUCUCCCAGAGUGUGGUCAACGACUCAAAAGAGAAUUUCAAGUACCAGUUUCAAAAUGCGGAUUAAUAUCGUCCAGAGAACAGAUUCCUCCUCUUGCGAGGCGUCUUCCGGGGCACCAGCGUGCAACAGAGGAUUGAGCAUCA
# B10: chr1:39494564:39494565:+_ENSG00000168653_ENST00000372967|hu_hu|FALSE|FALSE (ssRNA)
# RNA: GGGAGUUCUACAGUCCGACGAUCACCUGCACGUCUCAUCGUUUUCUGCCGAAGCAAACACUCUACGAAAUCAUCAUAUUCUAUCUUGCACUCUUUCUCUGCCCGAGUAUAACCGAUUCCAUGUGCACAUUCUAUCCAUUCUUUCAACAGAGGAUUGAGCAUCA
# B11: chr11:29606814:29606815:+_ENSMUSG00000020458_ENSMUST00000102843|mus_hu|motif|central (ssRNA)
# RNA: GGGAGUUCUACAGUCCGACGAUCCAAUUUAGUAAGAGCUGUAGGUAACUCUUGUUGAUUAUGAAGGAUGUUAUUACGGACGGACUUCUCUUCUUCAUCUUUAUUUUUCACGAUUAUUUCUUCCCUAGGAUUUGCUACUAUUACCAACAGAGGAUUGAGCAUCA
# B12: 216737564_216737684_952_CDS_ENSG00000196482_ENST00000408911|human|control|control (ssRNA)
# RNA: GGGAGUUCUACAGUCCGACGAUCAAUAUGCUUCGCCCAUCCAAUGAUAACCACCAACUCUCGGUCGGCCAAGUCACACAGUGUAGUGAGGGCUUUGAUGUCACUGUCGGGGACAGUAGGGUCAGGCAUGGCAUAGAUCUUCUCCAACAGAGGAUUGAGCAUCA
# B13: chr6:67234108:67234109:+_ENSMUSG00000036371_ENSMUST00000042990|mus_hu|FALSE|FALSE (ssRNA)
# RNA: GGGAGUUCUACAGUCCGACGAUCGCUACCAAUACAUUUCUAAAUACAAAACUGACUACCAUAUUUGUUACUUCUGUGUAGCGGGAGAAGUUCAUUUUUAAAACAGAUAAAAUUCAGUCUUUAGGUGUGAAUGGUAUGAAUGACCAACAGAGGAUUGAGCAUCA
# B14: chr3:45751083:45751084:+_ENSG00000211456_ENST00000389061|hu_hu|motif|central (ssRNA)
# RNA: GGGAGUUCUACAGUCCGACGAUCCCAUACAAACCGCUGAUCUGCCCUUUCCAAGAGACUCAUUUCUUGGAAUUCAGGACGGGUGUUGGAUAGCCGCUGCAAAGUAUGGGUCAAAUCAUAUGUUGUUGAAAAGUAAAAUCCAUCCAACAGAGGAUUGAGCAUCA
# B15: chr2:120444880:120444881:+_ENSMUSG00000027285_ENSMUST00000124187|mus_hu|FALSE|FALSE (ssRNA)
# RNA: GGGAGUUCUACAGUCCGACGAUCCUACUUGGCAUUAAUAGUUUGGACAUGAACUUUAGAAGUAAAAGGUAAAGGAGGCAUUAUAAUAUCAUGUUUAUAAAGAUAACUUUCUUCAGCUAAUAUUUUGGGGAUACAAGACGAAACCAACAGAGGAUUGAGCAUCA
# B16: chr12:48362563:48362564:+_ENSG00000134291_ENST00000256686|hu_hu|hu_hu_hu_mus_False|18_18 (ssRNA)
# RNA: GGGAGUUCUACAGUCCGACGAUCUCCGUCAAGCCCUUCGAUAGACCCUUGCGGGGGAAACUGUAAUCACUUUGUAUGGGGAAGGAAAAGAAACGCCAAAAACUUUCCAAAAAGCGGUUCAAAAAGCAGGCGGGAGGGGGAGGUCAACAGAGGAUUGAGCAUCA
# B17: 16580588_16583870_601_3pUTR_ENSMUSG00000020593_ENSMUST00000067124|mouse|control|control (ssRNA)
# RNA: GGGAGUUCUACAGUCCGACGAUCGUUCUGCUUCCAUCCAUCGGUGCUGUGUCCUCAUCCGAGCUCAUCUCUAUGGGAAACAUGUCCUCAUCCUCAGAUGUGUUGACAUUGUCAUCUCUUUUGAGAUUGUCCAACUGGGCCUUCCAACAGAGGAUUGAGCAUCA
# B18: 25093797_25093917_641_ncRNA_ENSMUSG00000074282_ENSMUST00000137781|mouse|control|control (ssRNA)
# RNA: GGGAGUUCUACAGUCCGACGAUCCUGAGCCAUCCCUCUAGCCCCAGAAAGAUUUUUAGUGUUAAAAAAUAAAUGUUCACCUAUCCACUACAUGUGUGGAGGUGAUUACAAUUAGAGAAGGCAUAAAACCACGGCAUCACACUGCAACAGAGGAUUGAGCAUCA
# B19: chr9:95013113:95013114:-_ENSG00000196305_ENST00000443024|hu_hu|hu_hu_hu_mus_False|1_68 (ssRNA)
# RNA: GGGAGUUCUACAGUCCGACGAUCCUCAGUCAGAAAGGGCGUGUAAGGGGCCAUCAGUCUGCACAGAGAAAGCAGAACACUGAACAGUGUCUCCAGAGCCAUGACACAGUCUUCCACCCCACUCUCACCCUUUAACCUUCUGCGCAACAGAGGAUUGAGCAUCA
# B20: chr7:27827042:27827043:+_ENSG00000106052_ENST00000265393|hu_hu|motif|central (ssRNA)
# RNA: GGGAGUUCUACAGUCCGACGAUCUUUGUUCCCAUCUAAAUUUUUUAAAGUCUGGACCUCUGACAUAAGCUUGGUAUUUUCGGUUUCUGUAUUCUUCAAAUGUACCUUAUAAAGUUCCUUUUCAUCCUUCUCUGUCUUCAACUGCAACAGAGGAUUGAGCAUCA
# B21: chr1:230810825:230810826:+_ENSG00000135775_ENST00000366669|hu_hu|motif|central (ssRNA)
# RNA: GGGAGUUCUACAGUCCGACGAUCUUUCUCAUGAAAUGCAUCGGGAUUCCCAGGAUUAAAAAGCGAGGGUAACUUUUCUUCGGAUCCUUGUACUAUUUGUGGCCAAACAGAAUUCACCAAAAAGUCAUAUCCAGGAACAGUAUUCAACAGAGGAUUGAGCAUCA
# B22: chr11:4127340:4127341:+_ENSG00000167325_ENST00000300738|hu_mus|hu_hu_hu_mus_False|38_58 (ssRNA)
# RNA: GGGAGUUCUACAGUCCGACGAUCGGCAUAGUCAGGGUGCUUCGUGGUCAAGGUCGCGGCUGUCUCAGCAGCCAGGGUAUCUAGUUCCACUGUGGUGACCCCACUGUAUAGGCCUUGGAUUACUUUCAUGGUGAUCUGAGCAGGCAACAGAGGAUUGAGCAUCA
# Biological target: T1, UNK ZnF1-3 (human, UniProt Q9C0B0 31-174)
# T1 sequence: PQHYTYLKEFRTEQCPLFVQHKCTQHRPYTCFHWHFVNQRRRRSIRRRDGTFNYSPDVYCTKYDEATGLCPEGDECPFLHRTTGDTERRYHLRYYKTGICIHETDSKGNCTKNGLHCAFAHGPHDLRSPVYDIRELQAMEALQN
# Test: nsRBNS (natural sequence RNA bind-n-seq); RBNS binding buffer (assumed for nsRBNS): 25 mM Tris pH 7.5, 150 mM KCl, 3 mM MgCl2, 0.01% Triton X-100, 500 ug/ml BSA, 20 U/ml SUPERase-In, 4 C; UNK is unkempt and MSI1 is Musashi-1; names of the RNAs are library labels; protein concentration not given here; high values mean tight binding
row,Binder,binding signal
1,B1,0.601 enrichment R
2,B2,0.675 enrichment R
3,B3,1.02 enrichment R
4,B4,1.31 enrichment R
5,B5,0.853 enrichment R
6,B6,1.02 enrichment R
7,B7,0.961 enrichment R
8,B8,0.81 enrichment R
9,B9,1.07 enrichment R
10,B10,0.668 enrichment R
11,B11,0.702 enrichment R
12,B12,1.06 enrichment R
13,B13,1.66 enrichment R
14,B14,0.838 enrichment R
15,B15,1.47 enrichment R
16,B16,2.29 enrichment R
17,B17,0.455 enrichment R
18,B18,2.14 enrichment R
19,B19,1.11 enrichment R
20,B20,0.538 enrichment R
21,B21,1.08 enrichment R
22,B22,0.837 enrichment R
